Source: PubChem BioAssay AID686978 (National Center for Advancing Translational Sciences (NCATS), 2013)
Values joined by “and” are separate entries in the source; they are usually repeats but may differ in a detail not shown here. Equal entries are not always repeated. About 64,000 (15%) of roughly 420,000 compounds were called active. This list was built around the results that the source calls inconclusive (neither active nor inactive); the mix of calls is not that of the screen. Calls follow the shape of the dose curve; as a rule, active = well fitted inhibition curve with a large enough effect; inconclusive = small, poorly fitted or top-dose-only effect; inactive = flat fitted curve, though single readings scatter. Where the call is inconclusive, the potency comes from a doubtful curve fit.

Assay: qHTS for Inhibitors of human tyrosyl-DNA phosphodiesterase 1 (TDP1): qHTS in cells in absence of CPT; also: nearly all actives have a fitted effect of over 55% in size
Details: DT40 Tdp1-/- hTDP1 cells, no CPT, ATP luminescence, 48 h; activity change, negative = growth inhibition: at 46.2 µM (top of the series) unless noted
In short: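 Stably hTDP1-transfected Tdp1-null chicken DT40 cells were treated with library compounds minus camptothecin and grown for at least 48 hr at 37 °C, after which cellular ATP was quantified by luminescence.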
% is scaled to controls: 0 for no effect and ±100 for the full control effect; potency is read from the fitted curve at half-maximal effect; tags tell the direction and shape of the fitted curve.

SMILES	Potency	activity change, negative = growth inhibition
CC1CCN(C(=O)COC(=O)C2CCN(S(=O)(=O)c3c(Cl)cccc3Cl)CC2)CC1	inactive	–
CC(C)CCn1nc(C(=O)Nc2nc3c(s2)CCCC3)c2ccccc2c1=O	active: 18.4 µM	–
O=C(Oc1ccc(N(C(=O)c2ccncc2)S(=O)(=O)c2cccs2)cc1)c1ccncc1	inconclusive: 23.1 µM [inhibitor, partial curve]	–
CCC(C)(C)NC(=O)C(c1ccncc1)N(C(=O)Cn1nnc2ccccc21)c1cc2c(cc1C(C)=O)OCO2 (stereo unspecified)	inactive	–
O=[N+]([O-])c1cccc(/C=C/c2nc(C=Nc3ccccc3)c(O)o2)c1	inconclusive: 16.4 µM [inhibitor, partial curve]	–
Cc1ccc(N(CC(=O)Nc2cccc(N(C)S(C)(=O)=O)c2)S(C)(=O)=O)cc1	inconclusive: 20.6 µM [inhibitor, partial curve, poor fit]	–
O=C(c1c[nH]c(C(=O)C(Cl)(Cl)Cl)c1)c1ccccc1F	inconclusive: 16.4 µM [inhibitor, partial curve]	–
Cc1ccc(C(=O)Nc2nnc(SCc3cc(=O)c4c(C)ccc(C)c4[nH]3)s2)cc1	active: 10.3 µM	–
CCN=C(Nc1cccc(F)c1)SC1CC(=O)N(c2ccc(OC)cc2)C1=O (stereo unspecified)	inconclusive: 29.1 µM [inhibitor, single point]	–
O=C(C1COc2ccccc2O1)N(Cc1cccnc1)c1nc2c(F)cc(F)cc2s1 (stereo unspecified)	inconclusive: 18.4 µM [inhibitor, single point]	–
COc1ccc(CS(=O)(=O)CC2(O)CCN(C(=O)c3cccc(C(F)(F)F)c3)CC2)cc1	inactive	–
O=S(=O)(Nc1cc(S(=O)(=O)N2CCOCC2)ccc1N1CCCC1)c1cccs1	inactive	–
CCn1c(CCC(=O)Nc2ccccc2F)nnc1SCC(=O)Nc1ccc(OC)cc1	–	inconclusive: -7.21% [inhibitor]
CCN(CC)C(=O)[C@H]1CC(CC(=O)NCc2ccco2)C(=O)N2CCc3c([nH]c4ccc(OC)cc34)[C@]12C (stereo partly specified)	inactive	–
COc1ccc(CC(=O)N/N=C/c2cc([N+](=O)[O-])cc(Br)c2O)cc1	inconclusive: 29.1 µM [inhibitor, single point]	–
COc1ccc(/C=N/NC(=O)C2C3CCCCC32C)cc1OC (stereo unspecified)	inactive	–
Cc1ccc(Cl)cc1NC(=O)CN1CCOCC1	inactive	–
Nc1nc(Nc2cccc(Cl)c2)nc(NCCO)c1[N+](=O)[O-]	inconclusive: 29.1 µM [inhibitor, single point]	–
Cc1ccc(Cl)cc1N1CCN(C(=O)c2c(C)oc3ncnc(N4CCOCC4)c23)CC1	inconclusive: 29.1 µM [inhibitor, single point]	–
COc1ccc(C2(c3ccc(OC)cc3)NC(=O)N(CC(=O)N3CCOCC3)C2=O)cc1	inactive	–
CC(C)(C)c1ccc(Cn2nnc3c(=O)[nH]c(C4CCCN(C(=O)c5ccco5)C4)nc32)cc1 (stereo unspecified)	inconclusive: 16.4 µM [inhibitor, partial curve, poor fit]	–
O=C(COc1ncnc2cc([N+](=O)[O-])ccc12)NC1CCCCC1	inactive	–
CCn1c(=O)n(CC)c2cc(N3CCCC3)c(NC(=O)c3c(F)cccc3F)cc21	active: 11.6 µM	–
Cc1cccc(C)c1OCc1cc(C(=O)N2CCN(C3CCCC3)CC2)no1	inconclusive: 16.4 µM [inhibitor, single point]	–

SMILES	Potency	activity change, negative = growth inhibition
CC1CCCC(NS(=O)(=O)c2ccc3c(c2)OCCO3)C1C (stereo unspecified)	inconclusive: 29.1 µM [inhibitor, single point]	–
O=C(c1ccc2c(c1)OCCO2)C1CCN(S(=O)(=O)c2ccc(F)cc2)CC1	inconclusive: 29.1 µM [inhibitor, single point]	–
O=C(CSc1n[nH]c(-c2ccccc2)n1)c1ccc(O)c(O)c1	inconclusive: 20.6 µM [inhibitor, single point]	–
CCc1nnc(SCc2nc(-c3ccccc3F)oc2C)c2cc3sccc3n12	inconclusive: 0.58 µM [inhibitor, full curve, poor fit]	–
O=C(N/N=C/c1cccc(O)c1)c1ccc(NC(=O)c2cccc([N+](=O)[O-])c2)cc1	active: 18.4 µM	–
O=c1cccc2n1Cc1cc3ccccc3nc1-2	inconclusive: 23.1 µM [inhibitor, single point]	–
O=C(O)C1=C/C(=C/C=[N+]2c3cc(O)c(O[C@H]4OC(CO)[C@@H](O)[C@@H](O)[C@@H]4O)cc3C[C@@H]2C(=O)[O-])C[C@H](C(=O)O)N1 (stereo partly specified)	inactive	–
O=C(Nc1nccs1)c1ccc(COc2ccccc2Br)o1	inconclusive: 23.1 µM [inhibitor, single point]	–
COc1cccc(CN2CCN(CCCc3ccccc3)C(CCO)C2)c1O (stereo unspecified)	inactive	–
Cc1cc(N2CCOCC2)nc(-c2ccc(Br)cc2)n1	inconclusive: 23.1 µM [inhibitor, partial curve, poor fit]	–
COC(=O)c1cccc(Nc2c(-c3cc(Br)ccc3O)nc3nc[nH]n23)c1	inconclusive: 23.1 µM [inhibitor, single point]	–
CC(=O)Nc1nnc(SCC(=O)Nc2nc(C)cs2)s1	inactive	–
Cc1cc(C)cc(OCC(=O)Nc2ccc(-c3nc4ncccc4o3)cc2C)c1	inconclusive: 6.51 µM [inhibitor, single point]	–
CC1CN(c2ncnc3c2c(-c2ccccc2)cn3-c2ccc(F)cc2)CC(C)O1 (stereo unspecified)	active: 9.2 µM	–
CN1CCC=C(C(=O)N2c3ccccc3Sc3ccc(Cl)cc32)C1	inconclusive: 16.4 µM [inhibitor, partial curve]	–
Cc1cccc(-n2c(SCC(=O)N(C)C3CCS(=O)(=O)C3)nc3ccccc3c2=O)c1C (stereo unspecified)	inconclusive: 7.31 µM [inhibitor, partial curve]	–
CC(C)c1ccc(C2(O)C(=O)Nc3cc(Br)ccc32)c(O)c1 (stereo unspecified)	inconclusive: 29.1 µM [inhibitor, single point]	–
Nc1cccc2c1C(=O)N(C(=O)c1ccc(S(=O)(=O)N3CCCCCC3)cc1)C2=O	inactive	–
O=C(NCC(=O)N(c1cccnc1)C(C(=O)NC1CCCC1)c1cccs1)c1ccco1 (stereo unspecified)	inactive	–
O=C(COc1ccc(Br)cc1Cl)NNC(=O)c1ccccc1	inconclusive: 29.1 µM [inhibitor, single point]	–
NS(=O)(=O)c1ccc(CNC(=O)C2(c3ccc(Cl)cc3)CC2)cc1	inconclusive: 29.1 µM [inhibitor, single point]	–
C[C@H]1CCC(=O)N([C@H](CSc2ccccc2)Cc2ccccc2)CC1	inconclusive: 35.5 µM [inhibitor, single point] and inconclusive: 18.4 µM [inhibitor, single point]	–
COc1cc(OC)c(NC(=O)c2nc(-c3ccncc3)no2)cc1Cl	inactive	–
CC(C)(C)C1CCN2CCCC(c3ccc([N+](=O)[O-])cc3)(C1)C21OCCO1 (stereo unspecified)	inconclusive: 16.4 µM [inhibitor, single point]	–

SMILES	Potency	activity change, negative = growth inhibition
COc1ccc2c(CC(=O)N(C)CC3COc4ccccc4O3)coc2c1 (stereo unspecified)	inactive	–
CSc1ncc(C(=O)Nc2ccc(Cl)cc2)c(C)n1	–	inconclusive: -30.6% [inhibitor]
O=C(CC1N=C2c3ccccc3N=C(SCc3cccc(Cl)c3)N2C1=O)NC1CCCCC1 (stereo unspecified)	active: 18.4 µM	–
CC1CCCC12NC(=O)NC2=O (stereo unspecified)	inactive	–
O=c1c2ccc([N+](=O)[O-])cc2ncn1CCOc1ccc(Cl)cc1	active: 14.6 µM	–
Cc1cccc(C)c1N(CC(=O)NC1CCCCC1)C(=O)c1csnn1	inactive	–
CCn1c(SCC(=O)NC2CC2)nnc1-c1ccc(F)cc1	inactive	–
O=C(CCNS(=O)(=O)c1ccccc1)NCCCSc1ccccc1	active: 18.4 µM	–
CCc1nnc2c(N(C)C)nc3ccccc3n12	–	inconclusive: -34% [inhibitor]
Cc1ccc(NS(=O)(=O)c2ccc(C(=O)N3CCOCC3)cc2)cc1	inconclusive: 18.4 µM [inhibitor, partial curve]	–
CO[C@H]1CN(C)C(=O)c2ccc(NC(=O)c3ccc4c(c3)OCO4)cc2OC[C@H](C)N(CC2CC2)C[C@@H]1C	inconclusive: 20.6 µM [inhibitor, single point]	–
CCCCN(CCCC)CC(O)COc1ccccc1C(=O)Nc1ccccc1 (stereo unspecified)	inconclusive: 20.6 µM [inhibitor, single point]	–
COc1ccccc1-c1nnc(SCC(=O)NCc2ccco2)n1N	inactive	–
CC(C)Sc1nc2ccc(N3C(=O)C4CCCCC4C3=O)cc2s1 (stereo unspecified)	inconclusive: 20.6 µM [inhibitor, single point]	–
COc1ccc(C(=O)COC(=O)c2cnc(C)cn2)c(OC)c1	inactive	–
CC(C)(C#CCN1CCCC1)OCCC#N	inactive	–
Cc1ccc2nsnc2c1NC(=O)Cc1ccc(Cl)cc1	inconclusive: 3.66 µM [inhibitor, single point]	–
Cc1cc(C)cc(N2C(=O)CC(Sc3nnnn3-c3ccccc3)C2=O)c1 (stereo unspecified)	active: 5.17 µM	–
CC(C)(C)NC(=O)CN(C(=O)CCC(=O)Nc1nccs1)c1cccc(C(F)(F)F)c1	inactive	–
Cc1ccc(NC(=O)CSc2nnc(C3CCCCC3)n2N)cc1F	inconclusive: 29.1 µM [inhibitor, single point]	–
COc1cccc(CNC(=O)[C@@H]2CCCN2C(=O)[C@@H]2CCCN2C(=O)OC(C)(C)C)c1	inactive	–
COC(=O)Sc1nc(N2CCOCC2)c2c(c1C#N)CC(C)(C)OC2	inconclusive: 23.1 µM [inhibitor, single point]	–
C(=N\Nc1nc(Nc2ccccc2)nc(Nc2ccccc2)n1)/c1cccnc1	active: 10.3 µM	–
